Where a name gives a salt, the structure may show the parent alone. ± gives the standard deviation of the averaged measurements. Repeats are few or missing, and single values can be far off.
Assays:
SUDHL6 parental = assay: estimated IC50 (cell viability); higher = less potent
[1] = tested on: SUDHL6 venetoclax-resistant; assay: as above
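Also: compound screen comparing venetoclax-resistant SUDHL6, derived by months of escalating venetoclax exposure, with its matched parental line, IC50 from one-site nonlinear dose–response fit, geometric mean for duplicated compounds.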

| Structure (SMILES) | estimated IC50 (SUDHL6 parental) [µM] | estimated IC50 [1] [µM] |
| --- | --- | --- |
| Cc1sc2c(c1C)C(c1ccc(Cl)cc1)=N[C@@H](CC(=O)Nc1ccc(O)cc1)c1nnc(C)n1-2 [OTX015] | 1.56 | 0.83 |
| COC1=CC(c2cc3ccccc3[nH]2)=N/C1=C\c1[nH]c(C)cc1C [Obatoclax Mesylate (GX15-070)] | 0.6 | 0.39 |
| C=CC(=O)Nc1cc(Nc2nccc(-c3cn(C)c4ccccc34)n2)c(OC)cc1N(C)CCN(C)C [Osimertinib (AZD9291)] | 7.25 | 3.37 |
| C=CCc1cccc(/C=N/NC(=O)CN2CCN(Cc3ccccc3)CC2)c1O [PAC-1] | 7.2 | 3.9 |
| O=C(Nc1cccnc1)N1CCC(Cc2cccc(Oc3ccc(C(F)(F)F)cn3)c2)CC1 [PF-3845] | 5.4 | 3.5 |
| O=C(NNc1ccccn1)c1ccccn1 [PFI-90] | 1.17 | 0.527 |
| COc1cc2c(O[C@@H]3O[C@H](CO)[C@@H]4OC(C)(C)O[C@@H]4[C@H]3O)c3c(c(-c4ccc5c(c4)OCO5)c2cc1OC)C(=O)OC3 [PHY34] | 0.0013 | 0.0001 |
| Fc1ccc2[nH]ccc2c1-c1nc(N2CCOCC2)c2sc(CN3CCN(CC4CC4)CC3)cc2n1 [PI-3065] | 4.3 | 1.9 |
| Cc1ccc([N+](=O)[O-])cc1S(=O)(=O)N(C)/N=C/c1cnc2ccc(Br)cn12 [PIK-75 HCl] | 0.59 | 0.36 |
| CC(=O)Nc1nc(C)c(-c2ccc(Cl)c(S(=O)(=O)NCCO)c2)s1 [PIK-93] | 5.98 | 1.72 |
| Nc1ncc(-c2ccnc(Nc3ccncc3)n2)c(CC2CC2)n1 [PIK-III] | > 10 | 5.9 |
| Nc1ncnc2c1c(-c1cnc3[nH]ccc3c1)nn2C1CCCC1 [PP121] | 3.1 | 1.4 |
| Nc1cc(C(F)F)c(-c2nc(N3C4CCC3COC4)nc(N3C4CCC3COC4)n2)cn1 [PQR620] | 5.1 | 2.22 |
| COCC1(CO)C(=O)C2CCN1CC2 (stereo not given) [PRIMA-1Met] | 4.87 | 1.74 |
| COc1cc(Br)c(Nc2nc(-c3c(C)nc4ncccn34)cs2)c(Br)c1 [PTC-209 HBr] | 4.46 | 2.6 |
| CC(=O)O[C@H]1C(=O)[C@@]2(C)[C@H]([C@H](OC(=O)c3ccccc3)[C@]3(O)C[C@H](OC(=O)[C@H](O)[C@@H](NC(=O)c4ccccc4)c4ccccc4)C(C)=C1C3(C)C)[C@]1(OC(C)=O)CO[C@@H]1C[C@@H]2O [Paclitaxel] | 0.06 | 0.018 |
| C/C(=C\c1csc(C)n1)[C@@H]1C[C@@H]2O[C@]2(C)CCC[C@H](C)[C@H](O)[C@@H](C)C(=O)C(C)(C)[C@@H](O)CC(=O)O1 [Patupilone (EPO906, Epothilone B)] | 0.05 | 0.02 |
| Cc1ccc(Nc2nccc(N(C)c3ccc4c(C)n(C)nc4c3)n2)cc1S(N)(=O)=O [Pazopanib hydrochloride] | 3.08 | 1.7 |
| N=C(N)NC(=N)NCCc1ccccc1 [Phenformin (hydrochloride)] | > 10 | 6.45 |
| CS(=O)(=O)N1CCN(Cc2cc3nc(-c4cccc5[nH]ncc45)nc(N4CCOCC4)c3s2)CC1 [Pictilisib (GDC-0941)] | 1.19 | 0.26 |

| Structure (SMILES) | estimated IC50 (SUDHL6 parental) [µM] | estimated IC50 [1] [µM] |
| --- | --- | --- |
| COc1ccc(Cl)c(Nc2nc3ccccc3nc2NS(=O)(=O)c2cccc(NC(=O)C(C)(C)N)c2)c1 [Pilaralisib (XL147)] | > 10 | 6.72 |
| NCCNc1ccc(NCCN)c2c1C(=O)c1ccncc1C2=O [Pixantrone (dimaleate)] | 6.31 | 3.36 |
| CC(C)(C)c1[nH]cnc1/C=c1\[nH]c(=O)/c(=C/c2ccccc2)[nH]c1=O [Plinabulin (NPI-2358)] | 0.13 | 0.06 |
| Cc1cc(Nc2ncc3c(n2)N(C)C(=O)N(c2cc(NC(=O)c4cccc(C(F)(F)F)c4)ccc2C)C3)n(C)n1 [Pluripotin (SC1)] | 0.42 | 0.24 |
| Cc1ccc(C(=O)Nc2ccc(CN3CCN(C)CC3)c(C(F)(F)F)c2)cc1C#Cc1cnc2cccnn12 [Ponatinib] | 0.27 | 0.15 |
| CCCCc1nc2cc(/C=C/C(=O)NO)ccc2n1CCN(CC)CC [Pracinostat (SB939)] | 0.377 | 0.24 |
| COc1ccc(C[C@H](N)C(=O)N[C@H]2[C@@H](O)[C@H](n3cnc4c(N(C)C)ncnc43)O[C@@H]2CO)cc1 [Puromycin 2HCl] | 0.77 | 0.28 |
| COc1ccc(F)c(F)c1C(=O)c1cnc(NC2CCN(S(C)(=O)=O)CC2)nc1N [R547] | 5.56 | 1.57 |
| N[C@@H](Cc1ccccc1)C(=O)N1C/C(=C\c2ccc(Cl)c(Cl)c2)C(=O)/C(=C/c2ccc(Cl)c(Cl)c2)C1 [RA190] | 0.06 | 0.04 |
| Nc1cc(F)ccc1NC(=O)/C=C/c1cnn(C/C=C/c2ccccc2)c1 [RGFP966] | 7.4 | 4.8 |
| Cc1cc2c3c([n+](C)c4ccc(F)cc4c3c1)-c1cc(F)ccc1N2C [RHPS 4 methosulfate] | 9.15 | 0.47 |
| O=C(c1ccc(OCCN2CCCCC2)cc1)c1c(-c2ccc(O)cc2)sc2cc(O)ccc12 [Raloxifene] | > 10 | 3.55 |
| CNC(=O)c1cc(Oc2ccc(NC(=O)Nc3cc(C(C)(C)C)nn3-c3ccc4ncccc4c3)c(F)c2)ccn1 [Rebastinib (DCC-2036)] | 3.32 | 1.79 |
| C[C@]12CC[C@H](O)C[C@H]1CC[C@@H]1[C@@H]2CC[C@]2(C)[C@@H](c3ccc(=O)oc3)C[C@H]3O[C@]132 [Resibufogenin] | 6.01 | 2.6 |
| c1nc2c(NC3CCCCC3)nc(Nc3ccc(N4CCOCC4)cc3)nc2[nH]1 [Reversine] | 6.35 | 3 |
| CO[C@H]1C[C@@H]2CC[C@@H](C)[C@@](O)(O2)C(=O)C(=O)N2CCCC[C@H]2C(=O)O[C@H]([C@H](C)C[C@@H]2CC[C@@H](OP(C)(C)=O)[C@H](OC)C2)CC(=O)[C@H](C)/C=C(\C)[C@@H](O)[C@@H](OC)C(=O)[C@H](C)C[C@H](C)/C=C/C=C/C=C/1C [Ridaforolimus (Deforolimus, MK-8669)] | > 10 | 0.002 |
| O=C(NNc1nc2cc(F)ccc2n2cccc12)c1cnccn1 [SC144] | 0.826 ± 0.34 | 0.346 ± 0.071 |
| Cc1c(Br)c(Br)c2c3c1nc(N1CCNCC1)n3CCC2 [SEL120 (SEL120-34?SEL120-34A)] | 4.68 | 2.2 |
| CC(C)(C)C(=O)Nc1ccc2c(c1)C(=O)C(=O)c1ccccc1-2 [SF1670] | 0.68 | 0.12 |
| COc1cc(Nc2ccnc3ccc(Br)cc23)cc(OC)c1OC [SGC-GAK-1] | 7.51 | 3.9 |

| Structure (SMILES) | estimated IC50 (SUDHL6 parental) [µM] | estimated IC50 [1] [µM] |
| --- | --- | --- |
| Cc1cc(Nc2ccc(NC(=O)c3ccc(Nc4ccnc5ccccc45)cc3)cc2)nc(N)n1 [SGI-1027] | 9.6 | 3.7 |
| CN1CCC(CNc2ccc3ncc(-c4cccc(OC(F)(F)F)c4)n3n2)CC1 [SGI-1776 free base] | 8.9 | 3.5 |
| Oc1ccc(Nc2nc(-c3ccc(Cl)cc3)cs2)cc1 [SKI II] | 7.7 | 3.5 |
| O=C(Nc1ccccc1-c1cn2c(CN3CC[C@@H](O)C3)csc2n1)c1ccc2ccccc2c1 [SRT2183] | 7.12 | 3.66 |
| Cc1nn(-c2ccnc(Nc3ccc(-c4csc5c(=O)cc(N6CCOCC6)oc45)cc3)n2)cc1CN1CCC1 [SRX3207] | 8.84 | 4.64 |
| CC(C)(C)c1ccc(S(=O)(=O)NCc2ccc(C(=O)Nc3cccnc3)cc2)cc1 [STF-31] | 0.42 | 0.16 |
| Cc1cc2c(C(=O)NC[C@H](C)c3ccccc3)c(O)c(O)cc2c(O)c1-c1c(C)cc2c(C(=O)NC[C@H](C)c3ccccc3)c(O)c(O)cc2c1O [Sabutoclax] | 2.55 | 0.55 |
| C[n+]1cc2c3c(ccc2c2ccc4cc5c(cc4c21)OCO5)OCO3 [Sanguinarine chloride] | 3.69 | 2.28 |
| CC(C)n1nc(-c2ccc3oc(N)nc3c2)c2c(N)ncnc21 [Sapanisertib (INK 128, MLN0128)] | 0.24 | 0.08 |
| CN1CCN(CCOc2cc(OC3CCOCC3)c3c(Nc4c(Cl)ccc5c4OCO5)ncnc3c2)CC1 [Saracatinib (AZD0530)] | 8.15 | 5.42 |
| CNC(=O)c1cc(Oc2ccc(NC(=O)Nc3ccc(Cl)c(C(F)(F)F)c3)cc2)ccn1 [Sorafenib] | 8.2 | 2.5 |
| Fc1ccc(CNc2ncnc3ccc(F)cc23)cc1 [Spautin-1] | 7.64 | 3.87 |
| CC(C)n1cnc2c(NCCc3ccc(O)cc3)nc(-c3csc4ccccc34)nc21 [StemRegenin 1] | 3.71 | 2.14 |
| N#Cc1c(Oc2ccc(F)c(NC(=O)Cc3cccc(C(F)(F)F)c3)c2)ccc2nc(NC(=O)C3CC3)sc12 [TAK-632] | 1.6 | 1 |
| N=C1CCCN1Cc1[nH]c(=O)[nH]c(=O)c1Cl.O=c1[nH]c(=O)n([C@H]2C[C@H](O)[C@@H](CO)O2)cc1C(F)(F)F [TAS-102] | > 10 | 1.97 |
| O=C(Cn1cc(S(=O)(=O)N2CCCC2)ccc1=O)c1ccc(-c2cccc(C(F)(F)F)c2)cc1 [TBOPP] | > 10 | 5.01 |
| Cc1cc(C(C)Nc2ccccc2)c2nc(N3CCOCC3)cc(=O)n2c1 (stereo not given) [TGX-221] | > 10 | 6.31 |
| CN(C)C/C=C/C(=O)Nc1ccc(C(=O)N2CCC[C@@H](Nc3ncc(Cl)c(-c4c[nH]c5ccccc45)n3)C2)cc1 [THZ531] | 0.54 | 0.31 |
| C[C@H]1CNC(=O)c2cnn3ccc(nc23)N[C@H](C)c2cc(F)ccc2O1 [TPX-0005] | 6.17 | 3.19 |
| Nc1cccc(-c2cc3c(Oc4cccc(O)c4)ncnc3[nH]2)c1 [TWS119] | 8.5 | 4.6 |

— the supplement of paper PMC11171410
